The EC50 is the midpoint of the concentration-response curve. A higher EC50 goes with a less potent agent.

Experiment [1] has as its target T1, human LAG-3-His (LAG-3 with C-terminal polyhistidine tag, ACROBiosystems) (human, UniProt P18627 23-450).
T1 construct: Bought protein; also called recombinant LAG-3-His
T1 sequence (looked up): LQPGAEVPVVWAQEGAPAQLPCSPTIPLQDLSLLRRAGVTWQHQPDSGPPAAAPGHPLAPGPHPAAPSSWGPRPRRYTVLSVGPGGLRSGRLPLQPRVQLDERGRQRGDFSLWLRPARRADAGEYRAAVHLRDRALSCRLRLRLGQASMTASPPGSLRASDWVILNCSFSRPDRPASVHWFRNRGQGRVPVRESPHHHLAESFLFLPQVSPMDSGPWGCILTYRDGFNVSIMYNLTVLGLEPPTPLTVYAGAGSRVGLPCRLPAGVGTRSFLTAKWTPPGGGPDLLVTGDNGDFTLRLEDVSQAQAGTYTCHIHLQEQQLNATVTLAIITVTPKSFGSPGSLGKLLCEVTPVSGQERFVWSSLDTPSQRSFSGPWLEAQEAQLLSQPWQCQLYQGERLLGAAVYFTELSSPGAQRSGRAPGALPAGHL
As to the kind of experiment: ELISA on LAG-3-His, detection via anti-Tlc antibody-HRP. Background: ELISA stands for enzyme-linked immunosorbent assay.

Experiment [2] has as its target T1, human LAG-3-His (LAG-3 with C-terminal …). As to the kind of experiment: ELISA on LAG-3-His, detection via anti-human IgG Fc-HRP.

B1: Fc-lipocalin mutein fusion polypeptide (SEQ ID NO: 42) (Fc fusion)
chain: [not shown - human IgG4 Fc with S228P (EU numbers)]GGGGSGGGGSGGGGSASDEEIQDVPGTWYLKAMTVSGEDPEMMLESVTPMTLTTLEGGNLEARVTVLIDGRCQEVKNVLEKTDEPGKYTEDGGKHVDYIIRSHVKDHYIFYFEGEGQGTPGRMVALVGRDPTNNLEALEDFEKAAGARGLSTESILIPRQSETCSPG
notes: also called lipocalin mutein Fc fusion; LAG-3 monospecific fusion polypeptide
Turning to B1, the EC50 in experiment [1] was 1.5 nM; in experiment [2], 1.1 nM.

B2: Fc-lipocalin mutein fusion polypeptide (SEQ ID NO: 41) (Fc fusion)
chain: [not shown - human IgG4 Fc with S228P (EU numbers)]GGGGSGGGGSGGGGSASDEEIQDVSGTWYLKAMTVDSDCFWIDDVSVTPMTLTTLEGGNLEAKVTMDIFGFWQEVKAVLEKTDEPGKYTADGGKHVAYIIRSHVKDHYIFYSEGECAGYPVPGVWLVGRDPKNNLEALEDFEKAAGARGLSTESILIPRQSETSSPG
notes: as for B1
Take B2: the EC50 in experiment [1] was 0.09 nM; in experiment [2], 0.07 nM.

The record behind these values is patent US20190010231A1 (Pieris, published 2019).
